The supplement of paper PMC8728848
The list shows a part of the results.

Legend:
Test in all cases: glycan array binding signal (z-score within array); higher = stronger binding
Conditions in all cases: glycan notation: IUPAC condensed, linker removed
Fuc(a1-2)Gal = target: Fuc(a1-2)Gal
In short: (§1)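 Glycan array data came from 3228 arrays in the Consortium for Functional Glycomics database, and only arrays with an available protein sequence were kept. Glycan names were put into IUPAC-condensed notation, and columns mapping to the same glycan were averaged. The binding signal is a within-array Z-score, averaged across arrays of one protein sequence run at different concentrations or buffers and across linkers. A negative Z-score can be read as non-binding.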

Fuc(a1-2)Gal(b1-3)GalNAc = target: Fuc(a1-2)Gal(b1-3)GalNAc
In short: as §1

[1] = target: Fuc(a1-2)Gal(b1-3)GalNAc(a1-3)[Fuc(a1-2)]Gal(b1-4)Glc
In short: as §1

[2] = target: Fuc(a1-2)Gal(b1-3)GalNAc(a1-3)[Fuc(a1-2)]Gal(b1-4)GlcNAc
In short: as §1

[3] = target: Fuc(a1-2)Gal(b1-3)GalNAc(b1-3)Gal
In short: as §1

[4] = target: Fuc(a1-2)Gal(b1-3)GalNAc(b1-3)Gal(a1-4)Gal(b1-4)Glc
In short: as §1

[5] = target: Fuc(a1-2)Gal(b1-3)GalNAc(b1-4)[Neu5Ac(a2-3)]Gal(b1-4)Glc
In short: as §1

Fuc(a1-2)Gal(b1-3)GlcNAc = target: Fuc(a1-2)Gal(b1-3)GlcNAc
In short: as §1

[6] = target: Fuc(a1-2)Gal(b1-3)GlcNAc(b1-2)Man(a1-3)[Fuc(a1-2)Gal(b1-3)GlcNAc(b1-2)Man(a1-6)]Man(b1-4)GlcNAc(b1-4)GlcNAc
In short: as §1

[7] = target: Fuc(a1-2)Gal(b1-3)GlcNAc(b1-2)Man(a1-3)[Fuc(a1-2)Gal(b1-3)GlcNAc(b1-2)Man(a1-6)]Man(b1-4)GlcNAc(b1-4)[Fuc(a1-6)]GlcNAc
In short: as §1

[8] = target: Fuc(a1-2)Gal(b1-3)GlcNAc(b1-3)Gal(b1-4)Glc
In short: as §1

[9] = target: Fuc(a1-2)Gal(b1-3)GlcNAc(b1-3)GalNAc
In short: as §1

[10] = target: Fuc(a1-2)Gal(b1-3)GlcNAc(b1-3)[Fuc(a1-2)Gal(b1-3)GlcNAc(b1-6)]GalNAc
In short: as §1

[11] = target: Fuc(a1-2)Gal(b1-3)GlcNAc(b1-3)[Gal(b1-4)GlcNAc(b1-6)]Gal(b1-4)Glc
In short: as §1

[12] = target: Fuc(a1-2)Gal(b1-3)GlcNAc(b1-3)[Neu5Ac(a2-6)Gal(b1-4)GlcNAc(b1-6)]Gal(b1-4)Glc
In short: as §1

[13] = target: Fuc(a1-2)Gal(b1-3)GlcNAc6S
In short: as §1

[14] = target: Fuc(a1-2)Gal(b1-3)[Fuc(a1-4)]GlcNAc
In short: as §1

[15] = target: Fuc(a1-2)Gal(b1-3)[Fuc(a1-4)]GlcNAc(b1-2)Man(a1-3)[Fuc(a1-2)Gal(b1-3)[Fuc(a1-4)]GlcNAc(b1-2)Man(a1-3)]Man(b1-4)GlcNAc(b1-4)GlcNAc
In short: as §1

[16] = target: Fuc(a1-2)Gal(b1-3)[Fuc(a1-4)]GlcNAc(b1-2)Man(a1-3)[Fuc(a1-2)Gal(b1-3)[Fuc(a1-4)]GlcNAc(b1-2)Man(a1-6)]Man(b1-4)GlcNAc(b1-4)[Fuc(a1-6)]GlcNAc(b1-4)[Fuc(a1-6)]GlcNAc
In short: as §1

[17] = target: Fuc(a1-2)Gal(b1-3)[Fuc(a1-4)]GlcNAc(b1-3)[Fuc(a1-3)[Gal(b1-4)]GlcNAc(b1-6)]Gal(b1-4)Glc
In short: as §1

[18] = target: Fuc(a1-2)Gal(b1-3)[Fuc(a1-4)]GlcNAc(b1-3)[Gal(b1-4)GlcNAc(b1-6)]Gal(b1-4)Glc
In short: as §1

[19] = target: Fuc(a1-2)Gal(b1-4)Fuc(a1-3)]GlcNAc(b1-2)Man(a1-3)[Fuc(a1-2)Gal(b1-4)[Fuc(a1-3)]GlcNAc(b1-2)Man(a1-6)]Man(b1-4)GlcNAc(b1-4)GlcNAc
In short: as §1

Fuc(a1-2)Gal(b1-4)Glc = target: Fuc(a1-2)Gal(b1-4)Glc
In short: as §1

Fuc(a1-2)Gal(b1-4)Glc6S = target: Fuc(a1-2)Gal(b1-4)Glc6S
In short: as §1

Fuc(a1-2)Gal(b1-4)GlcNAc = target: Fuc(a1-2)Gal(b1-4)GlcNAc
In short: as §1

[20] = target: Fuc(a1-2)Gal(b1-4)GlcNAc(b1-2)Man
In short: as §1

[21] = target: Fuc(a1-2)Gal(b1-4)GlcNAc(b1-2)Man(a1-3)[Fuc(a1-2)Gal(b1-4)GlcNAc(b1-2)Man(a1-6)]Man(b1-4)GlcNAc(b1-4)GlcNAc
In short: as §1

[22] = target: Fuc(a1-2)Gal(b1-4)GlcNAc(b1-2)Man(a1-3)[Fuc(a1-2)Gal(b1-4)GlcNAc(b1-2)Man(a1-6)]Man(b1-4)GlcNAc(b1-4)[Fuc(a1-6)]GlcNAc
In short: as §1

[23] = target: Fuc(a1-2)Gal(b1-4)GlcNAc(b1-2)[Fuc(a1-2)Gal(b1-4)GlcNAc(b1-4)]Man(a1-3)[Fuc(a1-2)Gal(b1-4)GlcNAc(b1-2)Man(a1-6)]Man(b1-4)GlcNAc(b1-4)GlcNAc
In short: as §1

[24] = target: Fuc(a1-2)Gal(b1-4)GlcNAc(b1-3)Gal(b1-4)GlcNAc
In short: as §1

B1: HML-Native (Hypnea musciformis), P84871 (protein)
chain: QKFCTLDIAPVCCQIVIGGGMYTAGNACMCEGFVSGVGRCENPKECPCTREAQIPSCCSSRWGLVSVTGKCACDCLGGTVAFPEPCPSPY
- glycan array binding signal (z-score) (Fuc(a1-2)Gal): -0.262
- glycan array binding signal (z-score) (Fuc(a1-2)Gal(b1-3)GalNAc): -0.269
- glycan array binding signal (z-score) [1]: -0.253
- glycan array binding signal (z-score) [2]: -0.278
- glycan array binding signal (z-score) [3]: -0.098
- glycan array binding signal (z-score) [4]: -0.207
- glycan array binding signal (z-score) [5]: -0.224
- glycan array binding signal (z-score) (Fuc(a1-2)Gal(b1-3)GlcNAc): -0.288
- glycan array binding signal (z-score) [6]: 0.013
- glycan array binding signal (z-score) [7]: 2.85
- glycan array binding signal (z-score) [8]: -0.231
- glycan array binding signal (z-score) [9]: -0.258
- glycan array binding signal (z-score) [10]: -0.249
- glycan array binding signal (z-score) [11]: -0.256
- glycan array binding signal (z-score) [12]: -0.216
- glycan array binding signal (z-score) [13]: -0.215
- glycan array binding signal (z-score) [14]: -0.221
- glycan array binding signal (z-score) [15]: -0.12
- glycan array binding signal (z-score) [16]: 3.06
- glycan array binding signal (z-score) [17]: -0.188
- glycan array binding signal (z-score) [18]: -0.199
- glycan array binding signal (z-score) [19]: -0.144
- glycan array binding signal (z-score) (Fuc(a1-2)Gal(b1-4)Glc): -0.237
- glycan array binding signal (z-score) (Fuc(a1-2)Gal(b1-4)Glc6S): -0.169
- glycan array binding signal (z-score) (Fuc(a1-2)Gal(b1-4)GlcNAc): -0.273
- glycan array binding signal (z-score) [20]: -0.193
- glycan array binding signal (z-score) [21]: 0.004
- glycan array binding signal (z-score) [22]: 1.81
- glycan array binding signal (z-score) [23]: -0.072
- glycan array binding signal (z-score) [24]: -0.17
